Test results from PubChem BioAssay AID504339 (National Center for Advancing Translational Sciences (NCATS), 2011).
Among all 390,000 compounds or so, about 17,000 (4.4%) were called active. Inconclusive results, whose numbers are uncertain, are shown with a selection of clear calls. Calls follow the shape of the dose curve; as a rule, active = well fitted inhibition curve with a large enough effect; inconclusive = small, poorly fitted or top-dose-only effect; inactive = no such curve, though single readings can be large or run the other way. A potency beside an inconclusive call is a rough fit, not a confirmed value.
Also: nearly all actives have a fitted effect of over 50% in size.
Potency is read from the fitted curve at half-maximal effect; tags tell the direction and shape of the fitted curve.

These compounds were tested against Lysine-specific demethylase 4A (Homo sapiens) (UniProt O75164) (assay: qHTS Assay for Inhibitors of JMJD2A-Tudor Domain). Conditions: AlphaScreen JMJD2A-Tudor / H3K4me3 peptide binding; series mostly up to 114 µM.
Chain of UniProt O75164 (O75164 whole entry, looked up, the tested form may be a part): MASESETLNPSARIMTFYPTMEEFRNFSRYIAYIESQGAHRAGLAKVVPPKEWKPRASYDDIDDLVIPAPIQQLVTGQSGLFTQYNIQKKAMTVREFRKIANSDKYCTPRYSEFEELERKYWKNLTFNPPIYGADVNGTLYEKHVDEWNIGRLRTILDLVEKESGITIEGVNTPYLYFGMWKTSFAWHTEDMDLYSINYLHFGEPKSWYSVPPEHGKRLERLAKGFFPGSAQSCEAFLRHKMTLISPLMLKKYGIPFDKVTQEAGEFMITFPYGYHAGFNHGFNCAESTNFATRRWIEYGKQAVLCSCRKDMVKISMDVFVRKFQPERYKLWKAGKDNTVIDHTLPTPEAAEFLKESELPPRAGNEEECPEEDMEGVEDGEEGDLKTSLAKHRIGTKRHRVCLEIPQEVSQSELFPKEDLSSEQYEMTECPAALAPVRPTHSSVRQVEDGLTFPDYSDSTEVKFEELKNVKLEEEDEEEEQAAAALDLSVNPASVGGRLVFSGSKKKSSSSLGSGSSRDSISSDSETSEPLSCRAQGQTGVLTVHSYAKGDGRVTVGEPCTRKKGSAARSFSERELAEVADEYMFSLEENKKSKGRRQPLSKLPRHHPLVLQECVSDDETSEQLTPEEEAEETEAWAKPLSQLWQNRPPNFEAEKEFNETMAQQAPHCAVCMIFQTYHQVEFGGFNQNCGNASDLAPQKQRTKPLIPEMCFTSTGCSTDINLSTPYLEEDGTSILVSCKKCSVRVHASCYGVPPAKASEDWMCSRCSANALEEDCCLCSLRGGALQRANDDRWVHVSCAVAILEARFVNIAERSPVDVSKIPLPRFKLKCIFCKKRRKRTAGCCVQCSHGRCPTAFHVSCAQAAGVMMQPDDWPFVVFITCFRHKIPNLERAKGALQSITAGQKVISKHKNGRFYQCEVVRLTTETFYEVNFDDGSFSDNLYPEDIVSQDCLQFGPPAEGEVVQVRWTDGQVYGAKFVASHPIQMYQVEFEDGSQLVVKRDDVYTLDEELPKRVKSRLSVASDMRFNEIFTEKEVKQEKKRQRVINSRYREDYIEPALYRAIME
With CCOC(=O)c1noc2nc(C)n(Cc3ccc([N+](=O)[O-])cc3)c(=O)c12 the Potency was active: 20 µM.
For COc1cccc(C(=O)N2CCN(C3CCN(Cc4ccccc4)CC3)CC2)c1OC, the Potency was active: 0.794 µM.
Cc1cccc(Cn2nnc3c(=O)[nH]c(C4CCN(C(=O)c5ccc(F)cc5)CC4)nc32)c1 was tested, and the Potency was “inactive”.
O=C(c1ccc(F)cc1)n1cc(C(=S)N2CCOCC2)c2ccccc21 was tested, and the Potency was inconclusive: 89.1 µM [inhibitor, partial curve].
In the case of Cc1c(C2C(C#N)=C(N)N(c3ccccc3C#N)C3=C2C(=O)CCC3)cnn1C (stereo unspecified), the Potency is reported as inconclusive: 25.1 µM [inhibitor, single point].
COc1ccccc1CN1C(=O)c2ccccc2C1C(=O)NC1CCC(C)CC1 (stereo unspecified) was tested, and the Potency was inconclusive: 39.8 µM [inhibitor, full curve].
For Cc1nc(-c2ccccc2)cn(O)c1=O, the Potency was active: 28.2 µM.
CCN1CC(CN(C)Cc2nc(-c3ccco3)oc2C)CC1=O (stereo unspecified) was tested, and the Potency was “inactive”.
For Fc1ccc(/C=N/n2c(-c3cccs3)n[nH]c2=S)cc1, the Potency was active: 31.6 µM.
In the case of CCN1C(=O)/C(=C/c2cccs2)S/C1=N\S(=O)(=O)c1ccc(C)cc1, the Potency is reported as inconclusive: 35.5 µM [inhibitor, partial curve].
Cc1ccc2c(c1)N(C(=O)Nc1cccc3c1CCCC3)CC(C)O2 (stereo unspecified) was tested, and the Potency was “inactive”.
In the case of COc1ccc(-c2nncnn2)cc1, the Potency is reported as inconclusive: 56.2 µM [inhibitor, partial curve].
With CCCn1c(O)c(N=N)c2ccccc21 the Potency was “inactive”.
For Cc1nn2cc(-c3ccc(Cl)cc3)cnc2c1Cl, the Potency was “inactive”.
In the case of CC(C)(C)c1nc2ccccc2[nH]1, the Potency is reported as active: 79.4 µM.
With Cc1nc2ccccn2c1/C(O)=C1\C(=O)C(=O)N(CCN(C)C)C1c1ccco1 (stereo unspecified) the Potency was “inactive”.
In the case of COc1ccc(OC)c(CN2CCN(C(=O)c3ccc(F)cc3)CC2)c1, the Potency is reported as active: 25.1 µM.
With COc1ccc(NC(=O)CN(C)C(C)C(=O)N2CCCCC2)cc1 (stereo unspecified) the Potency was active: 0.891 µM.
With N#Cc1cc2cc3c(cc2nc1SCC(=O)N1CCOCC1)OCCO3 the Potency was “inactive”.
For CCOC(=O)C1(CCOc2ccccc2)CCN(Cc2cc(OC)c(O)cc2Cl)CC1, the Potency was inconclusive: 56.2 µM [inhibitor, partial curve].
In the case of Cc1cc(C)nc(SCc2nnc(SCC(=O)NCc3ccco3)n2-c2ccccc2)n1, the Potency is reported as inconclusive: 28.2 µM [inhibitor, full curve].
With COc1ccc(NC(=O)NC(C)c2c(-n3cccc3)sc3c2CCN(C)C3)c(OC)c1 (stereo unspecified) the Potency was inconclusive: 50.1 µM [inhibitor, partial curve].
In the case of COc1cc(/C=N/NC(=O)c2cc(O)cc(O)c2)ccc1OC(=O)c1ccccc1, the Potency is reported as active: 22.4 µM.
In the case of Cc1nc2ccccn2c1C(=O)NNC(=S)Nc1ccc(Cl)cc1, the Potency is reported as inconclusive: 79.4 µM [inhibitor, partial curve].
Cc1ccc(C)c(-c2csc(N/N=C/c3ccco3)n2)c1 was tested, and the Potency was inconclusive: 39.8 µM [inhibitor, partial curve].
In the case of COc1ccc2[nH]cc(CCCN3C(=O)c4ccccc4C3=O)c2c1, the Potency is reported as inconclusive: 50.1 µM [inhibitor, partial curve].
COc1cccc(-c2nc(N3CCCC3)c3ccccc3n2)c1O was tested, and the Potency was inconclusive: 35.5 µM [inhibitor, partial curve].
In the case of S=c1[nH]nc(-c2ccc(Cl)cc2)n1CC1CCCO1 (stereo unspecified), the Potency is reported as active: 8.91 µM.
CC(C)CC(C(=O)Nc1oc(-c2ccco2)c(-c2ccco2)c1C#N)N1C(=O)c2ccccc2C1=O (stereo unspecified) was tested, and the Potency was inconclusive: 50.1 µM [inhibitor, partial curve].
For CCCC(=O)OCC(=O)Nc1cc(Cl)ccc1[N+](=O)[O-], the Potency was inconclusive: 39.8 µM [inhibitor, partial curve].
COc1ccc(C2(c3ccc(OC)cc3)NC(=O)N(CC(=O)Nc3ccc(N4CCOCC4)cc3)C2=O)cc1 was tested, and the Potency was inconclusive: 31.6 µM [inhibitor, full curve].
For CC1(c2ccccc2)NC(=S)N2C1NC(=S)N2c1ccccc1 (stereo unspecified), the Potency was inconclusive: 3.98 µM [inhibitor, full curve, poor fit].
Cc1sc(-c2ccccn2)nc1OC(=O)c1ccc(F)cc1F was tested, and the Potency was “inactive”.
In the case of CCOC(=O)c1cnc2ccc(OC)cc2c1Nc1ccc(N2CCN(C)CC2)cc1, the Potency is reported as active: 31.6 µM.
In the case of Cc1ccc(NC(=O)COC(=O)c2ccc3c(c2)NC(=O)C2CCCN32)cc1 (stereo unspecified), the Potency is reported as inconclusive: 28.2 µM [inhibitor, partial curve].
With Cc1[nH]c2ccccc2c1SCCNC(=O)c1ccccc1F the Potency was inconclusive: 56.2 µM [inhibitor, partial curve].
Cc1ccc(C2C(C#N)=C(N)Oc3nc(-c4ccccc4)[nH]c32)o1 (stereo unspecified) was tested, and the Potency was “inactive”.
With CC1=C/C(=C/N(C)c2ccccc2)C(=O)S1 the Potency was inconclusive: 39.8 µM [inhibitor, full curve].
CCN(CC)S(=O)(=O)c1cc(NC(=O)C(C)N2CCc3ccccc32)ccc1C (stereo unspecified) was tested, and the Potency was inconclusive: 39.8 µM [inhibitor, partial curve].
With CCN(CC)S(=O)(=O)c1cc(NC(=O)c2ccc(-n3cncn3)c([N+](=O)[O-])c2)ccc1C the Potency was inconclusive: 50.1 µM [inhibitor, partial curve].
For CCOC(=O)c1c(C)oc2c1c(C(c1cccnc1)N1CCCCC1)c(O)c1ccccc12 (stereo unspecified), the Potency was inconclusive: 39.8 µM [inhibitor, partial curve].
In the case of CCOc1ccc(CCNC(=O)c2cc3sc(CC)cc3n2C)cc1OCC, the Potency is reported as inconclusive: 22.4 µM [inhibitor, partial curve].
For COc1ccc(/C(O)=C2/C(=O)C(=O)N(CCN(C)C)C2c2ccc(F)cc2)cc1Cl (stereo unspecified), the Potency was inconclusive: 0.562 µM [inhibitor, full curve, poor fit].
CCn1ccnc1C(O)c1cccc(OC)c1 (stereo unspecified) was tested, and the Potency was inconclusive: 17.8 µM [inhibitor, full curve].
With CCCCNCc1cccn1-c1ccccc1 the Potency was active: 5.01 µM.
In the case of COc1ccc(S(=O)(=O)N2CC=C(C(=O)NC3CCCC3)CC2)cc1, the Potency is reported as inconclusive: 25.1 µM [inhibitor, full curve].
COc1cc(-c2noc(C)c2-c2ccc3[nH]ccc3c2)cc(OC)c1OC was tested, and the Potency was inconclusive: 89.1 µM [inhibitor, partial curve].
In the case of COc1ccc2[nH]c(O)c(N=NC(=O)Cc3cccs3)c2c1, the Potency is reported as active: 28.2 µM.
Cc1ccccc1NC(=S)NC(=O)/C=C/c1ccco1 was tested, and the Potency was inconclusive: 50.1 µM [inhibitor, partial curve].
CC(C)(C)c1nc(CN2CCOCC2)ccc1O was tested, and the Potency was inconclusive: 89.1 µM [inhibitor, partial curve].
In the case of O=C(c1ccccc1)c1ccc(CN2C(=O)c3ccccc3C2=O)o1, the Potency is reported as inconclusive: 70.8 µM [inhibitor, single point].
With Clc1cccc(OCCN2CCN(CCOc3cccc(Cl)c3)CC2)c1 the Potency was inconclusive: 39.8 µM [inhibitor, single point].
In the case of CCn1ccnc1CN(C)Cc1c(C(=O)N2C[C@@H](C)O[C@@H](C)C2)nc2ccc(Cl)cn12, the Potency is reported as inconclusive: 15.8 µM [inhibitor, partial curve].
With CC(C)Oc1ccc(C(=O)NC(=S)N2CCOCC2)cc1 the Potency was inconclusive: 70.8 µM [inhibitor, single point].
In the case of COc1ccc(NC(=O)CN2CCN(c3ccc(F)cc3)CC2)cc1, the Potency is reported as active: 25.1 µM.
For CCOC(=O)c1cnc2ccc(Cl)cc2c1Nc1ccc(N2CCOCC2)cc1, the Potency was active: 35.5 µM.
For Cc1nn(C)c(Cl)c1C(=O)NCC(=O)Nc1ccc(C(C)C)cc1, the Potency was “inactive”.
In the case of O=C(CCc1nnc2ccc(NCc3ccccc3)nn12)NC1CCCCC1, the Potency is reported as inconclusive: 56.2 µM [inhibitor, partial curve, poor fit].
In the case of CNC(=O)c1c(NC(NC(=O)c2ccco2)C(=O)c2ccc(Cl)cc2)sc2c1CCCC2 (stereo unspecified), the Potency is reported as inconclusive: 50.1 µM [inhibitor, partial curve].
For COc1ccc(NCc2nnc(SCC(=O)Nc3cc(C)cc(C)c3)o2)cc1, the Potency was inconclusive: 50.1 µM [inhibitor, partial curve, poor fit].
CCc1ccc(NC(=O)Cn2cnc3sc(C)c(S(=O)(=O)N4CCN(c5ccccc5OC)CC4)c3c2=O)cc1 was tested, and the Potency was “inactive”.
With O=C(C=NNc1ccccc1)c1ccccc1 the Potency was inconclusive: 35.5 µM [inhibitor, partial curve].
With COc1ccccc1-c1cc(-c2ccccc2)nc(SCC(=O)O)c1C#N the Potency was “inactive”.
CCOc1ccccc1C(=O)N/N=C/c1cccc2cccnc12 was tested, and the Potency was inconclusive: 56.2 µM [inhibitor, partial curve, poor fit].
For O=C(Nc1ccccc1)c1n[nH]c(Cn2cncn2)n1, the Potency was inconclusive: 17.8 µM [inhibitor, partial curve, poor fit].
With Cc1cccc(-c2nc3ccccc3n3c(-c4ccccc4)c4c(=O)n(C)c(=O)n(C)c4c23)c1 the Potency was “inactive”.
CCN1C(=O)[C@H]2[C@@H](c3ccc(SC4CCCCC4)cc3)N3CCCC[C@@]3(C(=O)OC)[C@H]2C1=O was tested, and the Potency was “inactive”.
For O=C(c1cccs1)N(Cc1ccccn1)Cc1ccco1, the Potency was inconclusive: 50.1 µM [inhibitor, partial curve].
Cc1cc(C2(c3ccc(O)c(C)c3)OC(=O)c3ccccc32)ccc1O was tested, and the Potency was inconclusive: 44.7 µM [inhibitor, partial curve].
O=C(Cc1ccccc1)Nc1ccc2oc(-c3ccncc3)nc2c1 was tested, and the Potency was inconclusive: 79.4 µM [inhibitor, partial curve].
O=C(Cc1ccccc1)NC(NNc1ccccc1)(C(F)(F)F)C(F)(F)F was tested, and the Potency was inconclusive: 35.5 µM [inhibitor, partial curve].
